# Publication PMC4336329 (PLoS ONE, 2015)
# About 14,000 (4.5%) of roughly 310,000 compounds showed an effect of 50% or more. Effects have a minus sign here. The list shows a part of the results.
# Molecular target: human ether-à-go-go-related gene (hERG) potassium channel (human, UniProt Q12809)
# Assay: primary screen, population patch clamp on CHO cells stably expressing hERG
# 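Further: peak tail current of the secondary pulse compared with the same well before compound.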
# human ether-à-go-go-related gene (hERG) potassium channel, sequence (Q12809 whole entry, looked up): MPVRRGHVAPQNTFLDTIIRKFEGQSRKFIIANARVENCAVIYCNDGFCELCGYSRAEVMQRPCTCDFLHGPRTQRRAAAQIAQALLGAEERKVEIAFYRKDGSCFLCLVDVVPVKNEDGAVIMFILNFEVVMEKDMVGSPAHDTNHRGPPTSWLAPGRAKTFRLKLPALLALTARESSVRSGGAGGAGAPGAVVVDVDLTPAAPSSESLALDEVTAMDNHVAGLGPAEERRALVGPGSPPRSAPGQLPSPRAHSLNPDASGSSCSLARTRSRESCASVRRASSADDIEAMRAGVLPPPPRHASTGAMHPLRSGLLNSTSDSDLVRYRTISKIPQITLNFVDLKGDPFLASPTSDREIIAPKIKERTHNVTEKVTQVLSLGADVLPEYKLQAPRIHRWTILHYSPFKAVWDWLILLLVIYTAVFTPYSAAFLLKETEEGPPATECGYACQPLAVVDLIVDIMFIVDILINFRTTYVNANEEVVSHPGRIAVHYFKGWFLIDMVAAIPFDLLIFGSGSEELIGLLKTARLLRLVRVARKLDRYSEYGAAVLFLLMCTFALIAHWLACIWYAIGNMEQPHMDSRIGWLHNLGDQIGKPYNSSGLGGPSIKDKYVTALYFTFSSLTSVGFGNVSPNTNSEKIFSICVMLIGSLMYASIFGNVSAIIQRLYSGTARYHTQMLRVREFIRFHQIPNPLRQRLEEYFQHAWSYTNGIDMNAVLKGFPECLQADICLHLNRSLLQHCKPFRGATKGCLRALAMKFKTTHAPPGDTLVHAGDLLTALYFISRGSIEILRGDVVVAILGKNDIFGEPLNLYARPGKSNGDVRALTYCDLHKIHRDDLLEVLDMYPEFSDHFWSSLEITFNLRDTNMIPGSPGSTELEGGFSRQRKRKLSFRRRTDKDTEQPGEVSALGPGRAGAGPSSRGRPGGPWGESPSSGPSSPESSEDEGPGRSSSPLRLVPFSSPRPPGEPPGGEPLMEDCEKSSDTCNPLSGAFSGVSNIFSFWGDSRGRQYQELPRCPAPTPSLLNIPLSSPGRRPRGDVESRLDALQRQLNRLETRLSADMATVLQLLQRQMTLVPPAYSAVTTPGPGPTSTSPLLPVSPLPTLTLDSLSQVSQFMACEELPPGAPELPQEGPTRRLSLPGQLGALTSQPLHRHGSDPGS
row,SMILES,"hERG current change (%, negative = inhibition) at 10uM [%]"
1,Cc1ccc(C2NS(=O)(=O)N=C2N)cc1 (stereo not shown),-2.13
2,CCNc1nc(NC(C)(C)C)nc(N2CCCC2)n1,-5.41
3,O=C1C=C(c2ccc(-c3ccccc3)cc2)C[C@@H](c2ccc3c(c2)OCO3)C1,7.88
4,O=C1C=C(c2ccccc2)OC(=O)C1C(=O)c1ccccc1 (stereo not shown),8.25
5,CCCNC(=O)C1CCN(c2cc(-c3ccccc3)nc3ncnn23)CC1,-75.8
6,O=C1O[C@@H]([C@H](O)CO)C(O)=C1O,9.09
7,O=C(O)C(=O)O.Oc1ccccc1CN1CCN(C(c2ccccc2)c2ccccc2)CC1,17
8,CC(NC(=O)CNC(=O)c1ccccc1F)c1ccc(-n2ccnc2)cc1 (stereo not shown),-64
9,CCC(=O)Nc1nnc(C(C)(C)C)s1,19.6
10,O=C(NCC1CCCO1)C1CCCN(c2ncccn2)C1 (stereo not shown),13.5
11,O=C(c1cc([N+](=O)[O-])cc([N+](=O)[O-])c1)N1CCOCC1,6.47
12,CC(C)OC(=O)c1cc2c(=O)[nH]c(C(Cl)(Cl)Cl)nc2o1,26.1
13,CCCC(NC(=S)NCC1CCCO1)C12CC3CC(CC(C3)C1)C2 (stereo not shown),14.5
14,CCOC(=O)c1nc(NNC(=O)c2ccc([N+](=O)[O-])cc2)sc1C,-6.84
15,CCc1nnc(NS(=O)(=O)c2ccc(NC(=O)CCC(=O)OC)cc2)s1,1.66
16,COc1ccc(CNC(=O)CSc2nc3ccc(C)cc3[nH]2)cc1,-8.01
17,C=CCOC(=O)C1=C(C)NC(C)=C(C(=O)OCC=C)C1/C=C/c1ccccc1,4.2
18,O=C(CNC(c1ccccc1)c1ccccc1)Nc1ccccc1-c1ccccc1,7.06
19,O=C(NCc1ccco1)/C(=C/c1ccco1)NC(=O)c1ccc(Br)o1,-11.6
20,Cc1ccc(CNC(=O)NC2CCCCC2)cc1,19.4
21,O=C1c2ccccc2NC(c2ccccc2)N1/N=C/c1ccccc1 (stereo not shown),14.2
22,COc1cc2cc(CN(Cc3cccs3)C(=S)Nc3cccc(C)c3)c(=O)[nH]c2cc1OC,-4.91

row,SMILES,"hERG current change (%, negative = inhibition) at 10uM [%]"
1,COC(=O)c1[nH]c2ccccc2c1CN1CCOCC1,-0.668
2,COc1ccc(C(=O)C[n+]2ccc3ccccc3c2C)cc1.[Br-],-2.48
3,COCCOc1cc(N2C(=O)CSCC2=O)c(Cl)cc1Cl,-9.88
4,CC1CCCCN1C(=O)CCC(=O)Nc1nnc(C(F)(F)F)s1 (stereo not shown),11.8
5,O=C(c1ccc2c(=O)n(Cc3ccc4c(c3)OCO4)c(=S)[nH]c2c1)N1CCCCC1,-4.24
6,CCC(c1nnnn1CCOC)N(Cc1ccc(C)cc1)Cc1cc2cc(OC)ccc2[nH]c1=O (stereo not shown),8.28
7,CCOC(=O)C1=C(C)Nc2ccccc2N=C1NC(=O)Cc1ccc(Cl)c(Cl)c1,9.56
8,O=C(Nn1cnnc1)c1cc([N+](=O)[O-])cc([N+](=O)[O-])c1,-1.95
9,N/C(=N/OCc1cccc([N+](=O)[O-])c1)c1nonc1N,-24
10,CC1CC=C(c2ccccc2)C(=S)N1 (stereo not shown),-4.53
11,C=CCc1c(C)[nH]c(=S)c(C#N)c1C,18
12,CC(=O)N1c2ccc(S(=O)(=O)NCCC(=O)NC3CCCC(C)C3C)cc2CC1C (stereo not shown),-3.55
13,COc1cc(NC(=O)C/C(C)=N/NC(=O)C(=O)NCCO)c(OC)cc1Cl,1.38
14,CCN=C1SC(CC(=O)Nc2sc(C)c(C)c2C(=O)OC)C(=O)N1CC (stereo not shown),9.64
15,O=C(Nc1ccc(S(=O)(=O)Nc2nccs2)cc1)c1ccc(N2C(=O)c3ccccc3C2=O)cc1,4.11
16,Cc1cccc(C)c1NC(=O)CN1C(=O)CCSc2ccc(S(=O)(=O)N3CCCC3)cc21,12
17,CC(C(N)=O)N1C(=O)NC2(CCCc3ccccc32)C1=O (stereo not shown),22.4
18,CC(=O)NC12CC3CC(C1)CC(C(=O)N1CCN(S(=O)(=O)c4ccccc4[N+](=O)[O-])CC1)(C3)C2,-20.8
19,CN1CCN(c2cc(N3CCNCC3)ccc2[N+](=O)[O-])CC1,11.3
20,O=C(CN1CCN(c2ccccc2O)CC1)Nc1cccnc1Cl,-17.2
21,CS(=O)(=O)c1ccc2nc(NC(=O)Nc3ccc(Cl)cc3)sc2c1,5.07
22,CCCCc1cc(=O)oc2cc(OCC(=O)N3C[C@H]4C[C@@H](C3)c3cccc(=O)n3C4)c(Cl)cc12,-62.5

row,SMILES,"hERG current change (%, negative = inhibition) at 10uM [%]"
1,CC(=O)N1CCN(C(=O)COC(=O)COc2c(C)cc(C)cc2C)CC1,5.48
2,CCCCCn1c(=O)[nH]c2cc(C(=O)NCc3ccccn3)ccc2c1=O,11.3
3,O=C(Nc1cnn(Cc2ccc(F)cc2)c1)c1cc(-c2cccs2)on1,-5.36
4,COc1ccc(NC(=O)C(=O)Nc2cccc3cccnc23)cc1OC,8.97
5,COc1ccc(Cl)cc1-c1csc(N)n1,-10.4
6,CCOC(=O)CSc1nnc(-c2ccccc2)c(-c2ccccc2)n1,18.3
7,COc1ccc(NC(=O)CN(C)C(=O)CCc2nc3cc(S(=O)(=O)N4CCOCC4)ccc3n2C)cc1,-9.09
8,COc1ccc(C)cc1NC(=O)C12CCC(C)(C(=O)O1)C2(C)C (stereo not shown),2.04
9,O=C(Nc1cc([N+](=O)[O-])ccc1F)c1ccc2c(c1)OCCO2,21.6
10,CN1CCN(c2ccc(S(C)(=O)=O)cc2[N+](=O)[O-])CC1,-2.78
11,O=C(CCCN1C(=O)c2cccc3cccc(c23)C1=O)Nc1nccs1,1.74
12,N#CC1=C(N)Oc2cc(N)ccc2C1c1ccccc1F (stereo not shown),0.196
13,Cc1nnsc1C(=O)NC(C)c1ccccc1 (stereo not shown),12
14,CC(=O)Cc1nsc(NC(=O)c2ccccc2Cl)n1,38.2
15,O=C(NC12CC3CC(CC(C3)C1)C2)c1cncc(Br)c1,-14.8
16,O=C(O)c1ccc2c(c1)OCCOCCOCCOCCOCCO2,-64
17,CCOc1ccc(-n2c(=O)c3sccc3n(CC(=O)NCCc3ccc(OC)c(OC)c3)c2=O)cc1,13.1
18,COc1ccccc1C(=O)NNC(=O)c1nn(Cc2ccccc2)c(=O)c2ccccc12,-14
19,COc1ccc(NC(=O)C(=O)NCCC2=CCCCC2)c(OC)c1,0.834
20,Cc1nc2ccccc2c(=O)n1-n1cnnc1,-2.29
21,O=c1oc(/C=C/c2ccc([N+](=O)[O-])s2)nc2ccccc12,17.7
22,CCC(=O)N1CN(S(=O)(=O)c2ccc(C)cc2)CC1C (stereo not shown),3.35

row,SMILES,"hERG current change (%, negative = inhibition) at 10uM [%]"
1,COC(=O)/C(=N\OCc1ccc(C#N)cc1)c1c(C)nn(C)c1C,-29.3
2,CCCCSc1cc(=O)n(-c2ccccc2)nc1C(=O)OCC,12.9
3,Cn1nnnc1P(=O)(c1ccccc1)c1ccccc1,7.84
4,Cc1cc(NC(=O)CN2CCN(c3ccccn3)CC2)ccc1Br,-22.7
5,O=C(CNC(=O)/C(=C\c1ccc(Br)cc1)NC(=O)c1ccccc1)OCc1ccccc1,-59.9
6,COC(=O)CNC(=O)c1ccccc1[N+](=O)[O-],12.4
7,O=C(CNc1ccccc1)N/N=C/c1ccc([N+](=O)[O-])o1,-39.3
8,Cc1ccc(S(=O)(=O)CC(=O)Nc2ccc(S(=O)(=O)Nc3ccccn3)cc2)cc1,9.34
9,Cc1ccc(S(=O)(=O)NCc2ccccc2)cc1C(=O)N1CCCCC1,-2.54
10,COC(=O)CCN(C1CCCCC1)S(=O)(=O)c1ccc(S(=O)(=O)N2CCCCC2)cc1,-2.64
11,CC(C)n1c(Nn2cnnc2)nc2ccccc21,-3.56
12,O=C(CSc1nnc2c(n1)[nH]c1ccccc12)NC1CCCCC1,-1.3
13,COC(=O)c1cc(C(=O)N2CCN(c3ncccn3)CC2)cc([N+](=O)[O-])c1,-5.19
14,COc1ccc(S(=O)(=O)N2CCCCC2)cc1NCC(=O)Nc1ccc(C)cc1,9.08
15,COc1ccc(C(=O)NCc2nc(C)c(C)s2)cc1OC1CCN(C(C)C)CC1,-0.645
16,COC(=O)c1ccc(COC(=O)CNS(=O)(=O)c2ccc(C)cc2)cc1,3.3
17,COc1ccccc1NS(=O)(=O)c1cc(NC(=O)c2ccco2)ccc1N1CCOCC1,-7.06
18,CN(C)CCCNc1ncnc2c1c(-c1ccccc1)cn2-c1ccccc1,-64.4
19,CCN1CCN(C(=O)c2ccc(CN(c3ccccc3)S(=O)(=O)c3ccccc3)cc2)CC1,-43.2
20,CCOc1ccc(NC(=O)CSc2nnc(-c3ccoc3C)n2CC2CCCO2)cc1 (stereo not shown),-19.1
21,COc1cccc(C(=O)NCc2ccc3c(c2)OCO3)c1OC,16.3
22,O=C(CCNC(=O)c1ccc(Br)cc1)Nc1ccccc1N1CCCCC1,10.7
